Test results published in ChEMBL document CHEMBL4888484, “Replenishing the malaria drug discovery pipeline: Screening and hit evaluation of the MMV Hit Generation Library 1 (HGL1) against asexual blood stage Plasmodium falciparum ,using a nano luciferase reporter read-out” (2022).
The whole screen tested about 150,000 compounds, of which about 540 (0.36%) showed an effect of 50% or more. The list shows a part of the results.

tested on: Plasmodium falciparum; assay: Primary screen in NF54 nanoGlo assay, in single point, at 2uM, 72h; a lower Z score goes with more inhibition; format: functional, Erythrocyte; details: timepoint 72 hour

| Compound | % Inhibition | Z score |
| --- | --- | --- |
| Cc1cncc(NC(=O)C(=O)N(CCc2cccc(F)c2)C2CC2)c1 | -8% | 1.48 |
| O=C1CCN(C(=O)C(F)F)[C@H](c2ccccc2)C1 | 15% | -1.84 |
| COC(OC)C12c3ccccc3C(c3ccccc31)C1C(=O)N(c3ccccn3)C(=O)C12 (stereo unspecified) | -34% | 4.04 |
| CC(=O)N(CCCNC(=O)c1cccc(Cl)c1)C(C)C | 8% | -1.13 |
| CCc1nc2cc(C(=O)O)cc(NC(=O)c3ccccc3OC)c2n1C | -11% | 1.24 |
| O=C(NCc1ccc(Nc2ccncc2)cc1)[C@H]1CCS(=O)(=O)C1 | -15% | 1.97 |
| CCCNC(=O)Cn1ccc(-c2ccccc2)nc1=O | -13% | 1.82 |
| Cc1cc(C(F)(F)F)nc(N2CC(c3ccnc(N)n3)C2)n1 | -22% | 2.79 |
| C[C@H]1CNCCN1C(=O)c1ccnc(C2CC2)n1 | -2% | 0.22 |
| Fc1ccc(/N=C2\NC3(CCCCC3)Cc3ccccc32)cc1F | -33% | 3.89 |
| CN(C)S(=O)(=O)N1CCC(CNC(=O)c2ccc(Cl)s2)CC1 | 5% | -0.62 |
| OC1CCN(CCNCc2cnc(-c3ccc4ccccc4c3)nc2)CC1 | -5% | 0.97 |
| CCCc1cnc(NC(=O)N[C@H](CO)Cc2c[nH]c3ccccc23)s1 | 0% | -0.05 |
| COc1ccc(C(=O)c2cnc3cc(Cl)ccc3c2-c2ccccc2)cc1 | -12% | 1.39 |
| Cc1noc(C)c1CNC(=O)N(C)Cc1c(C)noc1C | -13% | 2.41 |
| Cc1cccc(OCC(=O)Nc2cc3ccccc3cc2NC(=O)COc2cccc(C)c2C)c1C | 4% | -0.57 |
| COc1ccc(C(=O)N[C@H]2CO[C@H]3[C@@H]2OC[C@H]3OC(=O)Nc2ccc(C(C)C)cc2)cc1 | 4% | -0.65 |
| CC(C)CN(C)C(=O)[C@H]1CCCN(C2CCN(Cc3ccncc3)CC2)C1 | -8% | 1.52 |
| CC(=O)c1ccc(N(C)C)cc1OCc1ccccc1F | 10% | -0.96 |
| CCC(CC)NC(=O)N(Cc1ccc(OC)cc1OC)C1CCCC1 | -14% | 2.17 |
| Cc1cc(C)nc(N2CC3CC2CO3)n1 (stereo unspecified) | -13% | 1.6 |
| CN(Cc1ccccc1)C1CCCN(CC(O)C(F)(F)F)CC1 (stereo unspecified) | -17% | 1.74 |
| CCn1ncnc1-c1c(-c2ccccc2)ncn1Cc1ccc(CO)cc1 | -14% | 1.54 |
| CN1CC[C@H](NC(=O)N2CCC(Oc3cccc(C(F)(F)F)c3)CC2)C1=O | -11% | 1.3 |
| CCc1nc([C@H](C)NC(=O)Nc2ncn(C)n2)cs1 | -4% | 0.54 |
| CCc1nc([C@H](C)NCc2nc(C3CC3)no2)cs1 | 0% | 0.08 |
| S=c1sc2ccccc2n1CN1CCc2ccccc2C1 | -40% | 4.7 |

| Compound | % Inhibition | Z score |
| --- | --- | --- |
| CO[C@@H](CNC(=O)NCCc1cnc2c(Cl)cnn2c1)C1CC1 | -3% | 0.38 |
| CNCCCNC(=O)c1ccc(Br)cc1C | 31% | -4.52 |
| O=C(Nc1cc(C2CCCC2)nn1-c1ccccc1)c1cccc(S(=O)(=O)N2CCOCC2)c1 | -10% | 1.17 |
| COc1cccnc1CC(=O)Nc1nnc(C(C)C)s1 | -15% | 1.44 |
| CCCCN1C[C@]2(CCCN(S(=O)(=O)c3cnoc3C)C2)CCC1=O | -9% | 1.74 |
| C[C@H]1CCN(C)c2ccccc2N1S(=O)(=O)c1cnc2c(c1)c(=O)[nH]c(=O)n2C | 5% | -0.84 |
| O[C@]12CCCC[C@H]1CN(Cc1cccc(OCCCn3ccnc3)c1)CC2 | 0% | -0.06 |
| CCNc1ncc(C(=O)Nc2c[nH]c(=O)c(C)c2)s1 | -16% | 1.78 |
| Cc1ccc(NC(=O)c2sc3ncnc(N(C)C4CCCCC4)c3c2C)cc1 | -17% | 1.56 |
| O=C(C1CC1C1CC1)N1CC2(CCCCC2)C1 (stereo unspecified) | -28% | 3.26 |
| O=C(COc1ccc2c(c1)OCO2)N1CCOC[C@@H](O)C1 | -9% | 1.18 |
| N#CC(c1ccccc1)C1CCCN1CC(=O)N1CCNC1=O (stereo unspecified) | -12% | 1.19 |
| Cc1[nH]c(C(=O)N2CCN(c3ccc(Cl)cc3)CC2)c(C)c1S(=O)(=O)N1CCOCC1 | -5% | 0.72 |
| CCOC1(C)CN(C(=O)Nc2csc(C)n2)C1 | 5% | -0.55 |
| O=C(CN1CC[C@@]2(CCCNC2=O)C1)NCc1ccccc1 | -1% | 0.19 |
| COCC(=O)N[C@@H]1CC[C@H]2CCOc3ccccc3C(=O)N3CCN(Cc4ccc(C#N)cc4)C[C@H]3C(=O)NC[C@H]1O2 | -8% | 1.05 |
| Cc1ccc(C)c(C(=O)N[C@@H](C)c2nc(-c3cccnc3)cs2)c1 | 0% | -0.01 |
| COc1cccc(C2=NC3(CCN(C(=O)c4ccc5c(c4)OCO5)CC3)NC2=O)c1 | -12% | 1.53 |
| CCCNC(=O)[C@@H]1COC2(CCN(C(=O)Cc3ccccc3)CC2)N1C(=O)c1ccc(OC)cc1 | 3% | -0.37 |
| Cc1nc(N2CCN(C)CC2)cc(N2CCN(C(=O)COc3ncccn3)CC2)n1 | -7% | 1.14 |
| CN(C(=O)c1cccs1)c1ncnc2ccsc12 | -8% | 1.23 |
| OCCN1CCN(CCCOCCc2ccccc2)CC1 | -9% | 1.23 |
| CCS(=O)(=O)N1C[C@@H]2CN(Cc3ccncc3)C[C@]2(c2nc(C)no2)C1 | 7% | -0.96 |
| CC(C)c1nnc(C2CCN(C(=O)c3ccc4nsnc4c3)CC2)o1 | 14% | -1.87 |
| CCCCN(C)C(=O)c1ccc2c(c1)N(CCC)C(=O)[C@@H]1CCC(=O)N21 | 1% | -0.16 |
| O=C(NC1(c2noc([C@H]3CCOC3)n2)CCCCCC1)c1ccnc2ccnn12 | -11% | 1.79 |
